Read counts are not given, so values of variants with three or more changes are uncertain.

To fix the notation:
B1: CPEB3 Ribozyme (parent)
chain: UAACAGGGGGCCACAGCAGAAGCGUUCACGUCGCAGCCCCUGUCAGAUUCUGGUGAAUCUGCGAAUUCUGCUGUAUAUCUC

In this data set the parent is B1. The data set can be described thus: self-cleavage, relative activity (ratio to wild type); higher = more cleavage; in vitro, sequencing. An outline of the steps:
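Barcoded CPEB3 ribozyme mutants, produced by rounds of error-prone PCR, self-cleaved while being transcribed with T7 RNA polymerase for 5 hours at 37°C and during a subsequent 15 min DNase I step before EDTA was added. Sequencing of template-switched cDNA on Illumina gave cleaved and total reads, and DNA sequencing assigned barcodes to variants. Each variant's relative activity is its cleaved/total read fraction divided by the unmutated ribozyme's fraction, averaged across three batches. A variant needed a minimum of 5 reads.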
Regarding A13U A45G A56G A65G, the self-cleavage came out at 0.16.
With A13U A15U U48A U67C, the self-cleavage came out at 0.21.
In the case of A13U A28G A56G U72C, the self-cleavage amounted to 0.41.
Take A13U A18G U41C: the self-cleavage is 0.87.
A13U A35G A56G A65U: the self-cleavage came to 0.75.
As for A13U A21U U60C U67C, the self-cleavage is 0.12.
Under A13U C40U U51A U76C stands 0.88.
Turning to A13U A21U U72G, the self-cleavage was 0.22.
On to A13U A20G U43C, for which the self-cleavage came to 0.36.
As to A13U A21G U43C U60A U76A, the self-cleavage was determined as 0.36.
For A13U A28G U49C U60C the value was 0.29; for A13U C37U U43C U49G A56G, 0.06.
For the variant A13U C29A U41A A56G U72A, the self-cleavage is 0.06.
A13U A20U C62U: the self-cleavage was 0.06.
As for A13U A18G U43A C71A, the self-cleavage is 0.16.
Take A13U A21U A65G: the self-cleavage turned out to be 0.18.
On to A13U C17G C27G U69C, for which the self-cleavage was determined as 0.08.
For the variant A13U A15U A28G C62U U72C, the self-cleavage was found to be 0.15.
With A13U A28G U49A U54A U69A U72A, the self-cleavage came to 0.11.
With A13U A20U A28G A64G, the self-cleavage was 0.18.
In the case of A13U G53A A56G U72C, the self-cleavage was 0.91.
A13U A18G U41C U58C: the self-cleavage worked out at 0.75.
A13U A45C U51A: the self-cleavage came to 0.34.
As for A13U U25C U72C, the self-cleavage was 0.26.
With A13U A20G U54G, the self-cleavage was 0.57.
With A13U A20G A28U A56G U69C, the self-cleavage turned out to be 0.4.
For the variant A13U A20U U67C, the self-cleavage came out at 0.2.
For the variant A13U C29U U43A U49A U58C U74A U78C, the self-cleavage came out at 0.21.
On to A13U A28G C62U U72C U80A, for which the self-cleavage is 0.08.
For A13U A21G U43C A64G U80C, the self-cleavage worked out at 0.08.
Under A13U C17A A47G stands 0.51.
For A13U C29G A45G U49C U66C, the self-cleavage amounted to 0.06.
Under A13U A45G U48A stands 0.19; under A13U A21G G22A U26G U41A A45U, 0.03.
With A13U U26C A56G, the self-cleavage came out at 0.5.
A13U A18G A45U A56U U80G: the self-cleavage worked out at 0.11.
A13U A57C U60A G61A U72C: the self-cleavage is 0.09.
Consider A13U A21G U66C A75G, for which the self-cleavage is 1.01.
On to A13U A21G A57G U58G, for which the self-cleavage amounted to 0.2.
Turning to A13U A18G A35G U60C, the self-cleavage amounted to 0.54.
For the variant A13U C79U U80C, the self-cleavage was 1.46.
With A13U A20U U43A A45G A64C A65G, the self-cleavage turned out to be 0.09.
As to A13U A18G U51C U58C U67C U69A, the self-cleavage is 0.31.
Under A13U A28G A45G A64G A75U stands 0.17; under A13U A18U U31C G33A C59U, 0.07; under A13U A45G U72A U80A, 0.57.
A13U U25C A28G: the self-cleavage was found to be 0.24.
Regarding A13U A21G C71A U74C, the self-cleavage was 0.1.
In the case of A13U U26C A77U, the self-cleavage is 0.7.
For A13U C17U U51C A57G, the self-cleavage amounted to 0.44.
As for A13U C23G U31A U43C, the self-cleavage came to 0.06.
As to A13U A47U A65G U80C, the self-cleavage was determined as 0.05.
Take A13U A28G A35G: the self-cleavage came out at 0.67.
Regarding A13U U25A C29U A35G A45U U72A, the self-cleavage was determined as 0.05.
Under A13U A21G A45U U54C U80C stands 0.32.
Consider A13U A28U U78A, for which the self-cleavage was 1.07.
As to A13U U25C U80A, the self-cleavage is 0.1.
Under A13U A20U A28U U41A U49C U66C stands 0.06; under A13U A20C U41C A75G, 0.25.
Turning to A13U A28C U60C A65G U72G, the self-cleavage came to 0.11.
For the variant A13U C29U A65U, the self-cleavage came out at 0.11.
Under A13U C37G U58C U78C stands 0.21; under A13U A28G U43A U51A, 0.33; under A13U C29U U54G, 0.2.
Take A13U A18G U25C C29U U80A: the self-cleavage was determined as 0.26.
For A13U A18G A20G U31A A57G the value was 0.15.
As to A13U A20G A56G U60A U74A, the self-cleavage is 0.28.
In the case of A13U A28U C29A A45G U78C, the self-cleavage came out at 0.07.
For A13U U25C A56G U69G the value was 0.22.
As to A13U A15G U60C, the self-cleavage stood at 0.24.
A13U G36A U54C U66A U67C: the self-cleavage was found to be 0.11.
For A13U A35G A56G U66C the value was 1.22; for A13U A35U A65G, 0.43; for A13U A18U A20G, 0.18.
Consider A13U A20G A45U G70C, for which the self-cleavage came to 0.11.
For A13U A15U A20G U72C U76A the value was 0.66; for A13U A28U C32A U51C A64G, 0.08; for A13U A57G A64G U66C A77U, 0.22.
For A13U A20U A35G A65G U76C C79U the value was 0.34; for A13U U26C U48C U72C A75G, 0.11.
Turning to A13U C14U C62U, the self-cleavage came to 0.11.
Take A13U A75U C79G: the self-cleavage was found to be 1.3.
As to A13U C17G U26C A45U U49A A56U, the self-cleavage was determined as 0.04.
As to A13U U26C U43A U69C U72C U74A U78A, the self-cleavage came to 0.06.
Turning to A13U A35U U48C, the self-cleavage came out at 0.54.
Consider A13U U26A G30A U76C, for which the self-cleavage was determined as 0.21.
In the case of A13U U26A U31A A56G A75G, the self-cleavage is 0.46.
In the case of A13U U26A U41C, the self-cleavage was determined as 0.79.
On to A13U U26C U67A, for which the self-cleavage is 0.14.
For the variant A13U A47G A64G U72C U80C, the self-cleavage turned out to be 0.47.
Consider A13U A18G U43C A65G, for which the self-cleavage was 0.11.
Consider A13U A18G G46U, for which the self-cleavage was 0.21.
A13U A28U A75G: the self-cleavage came to 1.07.
Consider A13U C40U A57G, for which the self-cleavage came to 0.45.
As for A13U A18G A21C U25A, the self-cleavage stood at 0.4.
Take A13U C29U U31A: the self-cleavage amounted to 0.17.
In the case of A13U A18G U25C C59A, the self-cleavage amounted to 0.18.
For the variant A13U A21G A28G, the self-cleavage was found to be 0.17.
Consider A13U C14A A18G A64U A77G, for which the self-cleavage was 0.12.
Consider A13U A45G A56G, for which the self-cleavage turned out to be 0.83.
Take A13U A35G U41C A56G U67C: the self-cleavage came to 0.51.
In the case of A13U A28U C40G U58C, the self-cleavage was 0.02.
Turning to A13U A21G U60C, the self-cleavage is 0.26.
For the variant A13U A21G U26A U41A A45C, the self-cleavage was determined as 0.07.
For A13U C34A A45U the value was 0.17.
In the case of A13U A45C U49A, the self-cleavage was determined as 0.03.
For A13U A20G U51A U54G A56G the value was 0.35; for A13U A18C G36A C37A A47G C71U U72A, 0.04; for A13U A20G U43C A57G U72A, 0.1.
On to A13U A18G A56G U60A A64U, for which the self-cleavage came out at 0.26.
For the variant A13U G19U U26C C38G U41G U49C C62G, the self-cleavage turned out to be 0.03.
Under A13U A21U A57G A64G U66C U76C A77U stands 0.08.
Under A13U C32U A64U C68U stands 0.04; under A13U C17G U25C U49A A57G U78C, 0.14.
In the case of A13U A18G A28C U43C U58A, the self-cleavage was 0.2.
Turning to A13U A35U U58C U69C C81G, the self-cleavage worked out at 0.16.
For the variant A13U U26G U54C U66C U80C, the self-cleavage is 0.07.
Consider A13U A20C U72C, for which the self-cleavage stood at 0.38.
With A13U A18U C27G U43A U49C A57G, the self-cleavage is 0.05.
In the case of A13U C14A A35G C40U U43C U69A U76C, the self-cleavage came to 0.12.
In the case of A13U A18U G36C U51A, the self-cleavage was determined as 0.07.
As for A13U A21G C32U U67C, the self-cleavage was 0.1.
Consider A13U A35G U51C A57G, for which the self-cleavage amounted to 1.29.
In the case of A13U A20G U54C U69C, the self-cleavage was found to be 0.32.
Under A13U A21G A35G A45G U54C U67C A75G stands 0.07.
Consider A13U U25C U31A A65G, for which the self-cleavage amounted to 0.13.
As to A13U A45G A75U, the self-cleavage is 1.02.
A13U A28G A45U U60A: the self-cleavage amounted to 0.88.
For the variant A13U A47G C62U U76C A77U, the self-cleavage stood at 0.3.
With A13U A65G U72A, the self-cleavage was found to be 0.33.
Under A13U G22U U78A stands 0.17.
For the variant A13U A18U U26A U60A A65G U74A, the self-cleavage stood at 0.1.
Regarding A13U C40U A64G A65U U74C, the self-cleavage was determined as 0.12.
Regarding A13U U25C U48C, the self-cleavage amounted to 0.07.
As to A13U A18C U26C, the self-cleavage was 0.09.
For A13U A28G A64U the value was 0.26; for A13U A18U U25C U58A, 0.12; for A13U U25A U54C, 0.11.
Regarding A13U G33C U49C U54C U58C U69A, the self-cleavage came out at 0.06.
On to A13U A18G A20U A64G, for which the self-cleavage was 0.17.
As to A13U A45U U72A U76C U78C, the self-cleavage was determined as 0.29.
Take A13U A21G C38U U48C U78C: the self-cleavage stood at 0.06.
For the variant A13U A35G U48C A56G U72C A77C, the self-cleavage worked out at 1.02.
Under A13U U25A G36U stands 0.16.
Consider A13U A28C A35U U67C, for which the self-cleavage is 0.07.
For A13U U26C U43C A45U, the self-cleavage is 0.4.
For the variant A13U A20U A47G, the self-cleavage was 0.16.
Under A13U A64U A75U stands 0.5.
Regarding A13U A28U U54C A64G U67A G73A, the self-cleavage was found to be 0.38.
Under A13U A21G U25C U49C stands 0.12; under A13U A18G A20U C81A, 0.24.
As for A13U A15U G24U U31A A45G, the self-cleavage was determined as 0.15.
Under A13U U25C A28U U41C U43C U48C U51A stands 0.16; under A13U U26C A64G U74C, 0.45.
As to A13U A18G A21U U51C U60G, the self-cleavage amounted to 0.11.
With A13U A18U A47G U51A C62U U72C U80C, the self-cleavage was found to be 0.26.
Consider A13U U25A A45G, for which the self-cleavage worked out at 0.08.
In the case of A13U G19A U31C G52U U60C, the self-cleavage worked out at 0.05.
Regarding A13U A56G A57U A64G U69C, the self-cleavage came out at 0.1.
For the variant A13U C23G U49C U58C, the self-cleavage worked out at 0.05.
As to A13U G22C C44U U60A U76C U78C, the self-cleavage worked out at 0.12.
As to A13U A47G U48A, the self-cleavage worked out at 0.17.
Consider A13U A28G A47U A57G A64G, for which the self-cleavage turned out to be 0.18.
Under A13U A20U A56G stands 0.2; under A13U A47G U72A, 0.46; under A13U A20C U43C, 0.27.
Turning to A13U U26C G46C C71U, the self-cleavage worked out at 0.07.

The record behind these values is the RNAGym collection of RNA variant scans (doi:10.1093/nar/gkz1192).
